Among all 230,000 compounds or so, fewer than 10 were called active. The shares of active, inactive and inconclusive entries below differ from those in the screen. Calls come from the whole dose curve; as a rule, active = well fitted curve in the direction sought with a large enough effect; inconclusive = small, poorly fitted or top-dose-only effect, or effect the other way, or another doubt; inactive = no such curve, though single readings can be large or run the other way. Potencies of inconclusive entries are left out as doubtful fits.
The molecules below were run against Runt-related transcription factor 1 (Homo sapiens) + Core-binding factor subunit beta (Homo sapiens) (UniProt Q01196+Q13951) (assay: qHTS Assay for Compounds Blocking the Interaction Between CBF-beta and RUNX1 for the Treatment of Acute Myeloid Leukemia). Conditions: AlphaScreen CBFb-His/RUNX1-biotin binding, biochemical; activity, negative = inhibition: at 59.8 µM (top of the series) unless noted.
UniProt Q01196, sequence (Q01196 whole entry, looked up): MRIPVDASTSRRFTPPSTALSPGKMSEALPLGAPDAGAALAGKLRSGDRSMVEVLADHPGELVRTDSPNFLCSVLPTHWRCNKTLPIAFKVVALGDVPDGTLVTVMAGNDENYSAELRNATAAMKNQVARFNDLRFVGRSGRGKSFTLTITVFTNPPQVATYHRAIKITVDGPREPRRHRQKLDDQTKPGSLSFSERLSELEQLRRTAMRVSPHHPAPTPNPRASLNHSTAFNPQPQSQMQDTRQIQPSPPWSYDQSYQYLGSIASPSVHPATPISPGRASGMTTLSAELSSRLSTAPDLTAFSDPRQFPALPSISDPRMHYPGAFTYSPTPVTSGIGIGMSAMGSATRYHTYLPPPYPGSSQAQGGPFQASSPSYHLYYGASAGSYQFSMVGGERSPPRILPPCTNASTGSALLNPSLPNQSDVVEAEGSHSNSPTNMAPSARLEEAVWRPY
UniProt Q01196, sequence (Q13951 whole entry, looked up): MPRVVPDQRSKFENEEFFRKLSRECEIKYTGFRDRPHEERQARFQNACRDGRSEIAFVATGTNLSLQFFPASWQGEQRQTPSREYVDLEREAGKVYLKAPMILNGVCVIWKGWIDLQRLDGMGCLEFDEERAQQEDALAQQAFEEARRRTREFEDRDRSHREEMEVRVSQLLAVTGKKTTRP
Summary of the method: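 His-tagged CBF-beta and biotinylated RUNX1 (30 nM each) were premixed 20 min at room temperature, exposed to compound for 15 min, then given nickel-chelate and streptavidin AlphaScreen beads (50 ng each). After 90 min, AlphaScreen signal was read.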
O=C(N/N=C/c1ccc2c(c1)OCO2)c1cc(-c2ccccc2)nc2ccccc12 was tested, and the Potency was “inactive”.
COc1ccc(-c2[nH]c(-c3ccc(C)cc3)nc2SCC(=O)Nc2nccs2)cc1 was tested, and the Potency was “inactive”.
For CC1=C(C(=O)OCC2CCCO2)C(c2ccc(C)cc2)C2=C(CC(C)(C)CC2=O)N1 (centres undefined), the Potency was “inactive”.
With CCOc1ccc(C(C)=O)cc1CSc1nnc(-c2ccncc2)n1CCOC the Potency was inconclusive [inhibitor, single point].
In the case of CCOc1ccc(C2c3c(oc4cc(C)c(C)cc4c3=O)C(=O)N2CCCN(C)C)cc1OC (centres undefined), the Potency is reported as “inactive”.
COc1ccc(N2CCN(C(c3ccccc3OC)c3nnnn3C3CCCC3)CC2)cc1 (centres undefined) was tested, and the Potency was “inactive”.
With COCCn1cc(C(=O)NCCCN2CCC(C)CC2)c2c3ccccc3n(C)c2c1=O the Potency was “inactive”.
O=C(CSc1ccccn1)Nc1cccc2ccccc12 was tested, and the Potency was “inactive”.
With Cc1cc(N=Nc2ccc(Cl)cc2)cc(CN2CCCC2)c1O the Potency was inconclusive [inhibitor, single point].
With N=c1sc2c(n1Cc1ccccc1)CCCC2 the Potency was “inactive”.
In the case of CN(C)c1cccc(C(=O)OCc2cc(=O)oc3cc(O)ccc23)c1, the Potency is reported as inconclusive [inhibitor, partial curve].
Cc1cc2c(c(=O)o1)C(c1ccc([N+](=O)[O-])o1)C(C#N)=C(N)O2 (centres undefined) was tested, and the Potency was inconclusive [inhibitor, partial curve].
CCN(CC)c1ccc(N=Cc2c(O)n(-c3ccccc3C)c(=O)[nH]c2=O)cc1 was tested, and the Potency was “inactive”.
For COc1ccccc1NC(=O)CSc1nnc(COc2ccc(Cl)cc2)n1Cc1ccco1, the Potency was inconclusive [inhibitor, single point].
COc1ccc(Cc2nc(-c3ccc(Br)cc3)no2)cc1 was tested, and the Potency was inconclusive [activator, partial curve].
In the case of O=C(/C=C/c1ccco1)NCc1ccco1, the Potency is reported as inconclusive [inhibitor, single point].
With CC(=O)OCC(=O)[C@@]1(O)CCC2C3C[C@H](C)C4=CC(=O)C=CC4(C)C3C(O)CC21C (some centres undefined) the Potency was “inactive”.
With CC(=O)N1CCC2(CC1)C/C(=N\NC(=S)Nc1ccccc1C)c1cc(O)ccc1O2 the Potency was inconclusive [inhibitor, single point].
For COc1ccc(-c2cnc(SCC(=O)Nc3nc(C(C)(C)C)cs3)n2Cc2ccco2)cc1, the Potency was inconclusive [inhibitor, partial curve].
In the case of COC1C(OC(=O)c2ccc(C)[nH]2)C(O)C(Oc2ccc3c(O)c(NC(=O)c4ccc(O)c(CC=C(C)C)c4)c(=O)oc3c2Cl)OC1(C)C (centres undefined), the Potency is reported as inconclusive [inhibitor, partial curve].
With Cc1cc(C(=O)Cn2nc(C(=O)O)c3ccccc3c2=O)c(C)n1-c1ccc(OC(F)F)cc1 the Potency was inconclusive [inhibitor, single point].
With CCOc1cc(C2CC(=O)Nc3cc(C)c(C)cc32)ccc1O (centres undefined) the Potency was “inactive”.
In the case of O=C(C1=C[C@@H](c2csc3ccccc23)C[C@@H](OCc2ccc(CO)cc2)O1)N1CCN(Cc2ccc3c(c2)OCO3)CC1, the Potency is reported as inconclusive [inhibitor, single point].
With O=C(N/N=C/c1ccccn1)c1cc(-c2cccc3ccccc23)n[nH]1 the Potency was inconclusive [inhibitor, partial curve].
O=C(N/N=C/c1c(O)n(Cc2ccc(F)cc2)c(=O)[nH]c1=O)c1ccccc1 was tested, and the Potency was inconclusive [inhibitor, single point].
For CC(C)(C)c1ccc(NC(=S)NCc2cccs2)cc1, the Potency was “inactive”.
For O=C(N/N=C\c1ccccn1)c1ccccc1O, the Potency was inconclusive [inhibitor, single point].
O=C(Oc1c(Cl)cc(Cl)c2cccnc12)c1cccc([N+](=O)[O-])c1 was tested, and the Potency was inconclusive [inhibitor, single point].
In the case of Fc1cc(F)c2nc(Nc3nc4cc5c(cc4s3)OCO5)sc2c1, the Potency is reported as inconclusive [activator, full curve].
In the case of CC(=O)Nc1ccc(-c2cc(-c3ccc(NC(C)=O)cc3)nc(-c3ccccc3)n2)cc1, the Potency is reported as “inactive”.
Cc1ccc(C(=O)NNC(=O)C2CCN(S(=O)(=O)c3ccc(C)cc3)CC2)cc1 was tested, and the Potency was “inactive”.
With Cc1ccc(S(=O)(=O)c2cc3cc(Br)ccc3oc2=O)cc1 the Potency was “inactive”.
O=c1c(O)c(-c2ccc(O)c(O)c2)oc2cc(O)cc(O)c12 was tested, and the Potency was inconclusive [inhibitor, full curve, poor fit].
In the case of COC(=O)Cc1cc(=O)n(-c2nc3ccccc3s2)[nH]1, the Potency is reported as inconclusive [inhibitor, single point].
For CO[C@@H]1C[C@@H](C[C@H]2CC[C@H](C)[C@@H]([C@@H](C)C(=O)O)O2)O[C@]2(O[C@](C)([C@H]3CC[C@@](C)(C4OC([C@H]5O[C@@](O)(CO)[C@H](C)C[C@@H]5C)C[C@@H]4C)O3)C[C@H]2C)[C@@H]1C (some centres undefined), the Potency was inconclusive [activator, full curve].
O=C(N/N=C/c1c(O)n(-c2ccccc2)c(=O)[nH]c1=O)c1ccncc1 was tested, and the Potency was inconclusive [inhibitor, partial curve].
For CN1CCN(c2nc3c(c(=O)[nH]c(=O)n3C)n2CCCSc2nnnn2-c2ccccc2)CC1, the Potency was “inactive”.
O=C(CCCCl)Oc1ccc2cc(-c3ccc4ccccc4n3)c(=O)oc2c1 was tested, and the Potency was inconclusive [activator, partial curve, poor fit].
For O=C(CN1CCCCC1)NCC(=O)Nc1ccc(Br)cc1C(=O)c1ccccc1, the Potency was “inactive”.
In the case of O=C(c1ccccc1)N1CCN(Cc2c[nH]c3ccccc23)CC1, the Potency is reported as “inactive”.
In the case of O=C(Nc1ccc([N+](=O)[O-])cc1O)Nc1ccccc1Br, the Potency is reported as inconclusive [inhibitor, single point].
In the case of CCn1c(O)c(C(c2ccccn2)c2c(O)n(CC)c(=S)[nH]c2=O)c(=O)[nH]c1=S, the Potency is reported as inconclusive [inhibitor, single point].
In the case of Nc1ccc(N2CCN(c3ccc(Cl)c(Cl)c3)CC2)cc1, the Potency is reported as inconclusive [inhibitor, single point].
For O=C(Oc1ccccc1)N(c1ccccc1)c1ccccc1, the Potency was inconclusive [activator, single point].
COc1cc(NC(=O)Nc2cccc([N+](=O)[O-])c2)cc(OC)c1 was tested, and the Potency was “inactive”.
For CCC(C)C(=O)N1c2ccccc2C(=C2SC(C(=O)OC)=C(C(=O)OC)S2)C(=S)C1(C)C (centres undefined), the Potency was inconclusive [inhibitor, full curve].
With CCCCc1nc2c(c3c1C[C@H](C)OC3)CN(C(=O)c1ccco1)CC2 the activity, negative = inhibition was inactive: 4.96% [at 13.1 µM].
For Clc1ccc(Cc2ccc(SCc3ccccc3)nn2)c(Cl)c1, the Potency was inconclusive [activator, single point].
For O=C1/C(=C\c2ccco2)SC(=S)N1Cc1ccccc1, the Potency was inconclusive [inhibitor, single point].
For Cc1cccc(-n2c(O)c(C=Nc3ccc(Br)cn3)c(=O)[nH]c2=O)c1, the Potency was inconclusive [activator, partial curve].
With CCOC(=O)CCSc1nc(-c2ccccc2)cc(C(F)(F)F)n1 the Potency was inconclusive [activator, partial curve].
For Cc1cccc(Nc2nc3c(s2)CCCC3)c1, the Potency was “inactive”.
With COc1ccc(Cc2nc(-c3cccc(C)c3)no2)cc1 the Potency was inconclusive [activator, single point].
With COc1ccc(C(=O)Nc2nc3cc4c(cc3s2)OCCO4)c(OC)c1 the Potency was inconclusive [activator, partial curve].
For COc1ccc2nc(SCc3cccc(C)c3)nc(C)c2c1, the Potency was inconclusive [activator, single point].
Cc1cccc(Nc2nc(-c3ccccn3)cs2)n1 was tested, and the Potency was inconclusive [inhibitor, partial curve].
For COC(=O)c1ccc(CSc2nc3c(cnn3-c3ccc(C)c(C)c3)c(=O)[nH]2)o1, the Potency was “inactive”.
For O=C(N/N=C/c1ccccc1)c1ccc(OCc2ccccc2)cc1, the Potency was inconclusive [inhibitor, partial curve].
With Cc1ccc(S(=O)(=O)NNC(=O)c2sccc2-n2cccc2)cc1 the Potency was “inactive”.
With O=c1ccc(Cc2ccccn2)n[nH]1 the Potency was inconclusive [activator, single point].
With O=C(Nc1nc(-c2ccccn2)cs1)c1ncc(Cl)c(Cl)c1Cl the Potency was inconclusive [inhibitor, partial curve].
In the case of Cc1cc(NC(=O)c2cc(C)on2)n(-c2ccccc2)n1, the Potency is reported as inconclusive [activator, single point].
For O=C(O)c1cc(-c2ccc(/C=C3\NC(=O)N(c4ccccc4)C3=O)o2)ccc1Cl, the Potency was inconclusive [inhibitor, single point].
Cc1ccc(C)c(N2CCN(C(=S)Nc3ccc4nc(N5CCN(C)CC5)cc(C)c4c3)CC2)c1 was tested, and the Potency was “inactive”.
For Cc1ccccc1OC1C=CC(c2ccccc2)OC1CO (centres undefined), the activity, negative = inhibition was inactive: -9.19% [at 13.1 µM].
With O=C(Nc1nc(-c2ccccn2)cs1)C1CC1 the Potency was inconclusive [inhibitor, partial curve].
Cc1cc(N(CCO)CCO)ccc1N=Nc1cc(F)ccc1F was tested, and the Potency was inconclusive [inhibitor, partial curve].
With Cc1nn(CCc2nc(-c3ccco3)cs2)c2[nH]c(=O)cc(C(F)(F)F)c12 the Potency was “inactive”.
In the case of Cc1nnc(SCC(=O)NCc2ccco2)[nH]c1=O, the Potency is reported as inconclusive [inhibitor, single point].

— PubChem BioAssay AID1477 (National Center for Advancing Translational Sciences (NCATS), 2009)
Throughout, for activity, negative = inhibition: % of control where 0% means no effect.
